Source: paper PMC10030575, “The IgV domain of the poliovirus receptor alone is immunosuppressive and binds to its receptors with comparable affinity” (Scientific Reports, 2023)
No constants are given. Whether binding was seen depends on the method and setting. Some entries that bind do so weakly or less than the wild type. For some assays here: Sequences can lack the tags named with a protein.

T1: recombinant mouse TIGIT-Fc-his (mouse, UniProt P86176 29-148)
T1 construct: mouse TIGIT (T-cell immunoglobulin and ITIM domain), recombinant; also called mTIGIT-Fc-his; mTIGIT; source: bought: Biolegend (771808)
T1 sequence (looked up): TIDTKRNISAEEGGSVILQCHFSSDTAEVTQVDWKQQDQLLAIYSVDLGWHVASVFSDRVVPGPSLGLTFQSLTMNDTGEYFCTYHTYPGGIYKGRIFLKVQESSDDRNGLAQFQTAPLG

T2: recombinant mouse CD226-his (mouse, UniProt Q8K4F0 19-254)
T2 construct: mouse CD226 (DNAM1), recombinant; also called mCD226-his; mCD226; source: bought: SinoBiological (50232-M08H)
T2 sequence (looked up): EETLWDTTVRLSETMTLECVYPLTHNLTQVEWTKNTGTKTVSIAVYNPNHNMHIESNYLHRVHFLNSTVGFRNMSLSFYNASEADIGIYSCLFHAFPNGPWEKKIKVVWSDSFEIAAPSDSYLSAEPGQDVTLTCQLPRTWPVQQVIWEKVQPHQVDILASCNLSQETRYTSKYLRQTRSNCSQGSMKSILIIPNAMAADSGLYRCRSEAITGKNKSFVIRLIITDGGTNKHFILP

T3: recombinant mouse CD96-his (mouse, UniProt Q3U0X8 22-536)
T3 construct: mouse CD96 (TACTILE), recombinant; also called mCD96-his; mCD96; source: bought: Biolegend (788806)
T3 sequence (looked up): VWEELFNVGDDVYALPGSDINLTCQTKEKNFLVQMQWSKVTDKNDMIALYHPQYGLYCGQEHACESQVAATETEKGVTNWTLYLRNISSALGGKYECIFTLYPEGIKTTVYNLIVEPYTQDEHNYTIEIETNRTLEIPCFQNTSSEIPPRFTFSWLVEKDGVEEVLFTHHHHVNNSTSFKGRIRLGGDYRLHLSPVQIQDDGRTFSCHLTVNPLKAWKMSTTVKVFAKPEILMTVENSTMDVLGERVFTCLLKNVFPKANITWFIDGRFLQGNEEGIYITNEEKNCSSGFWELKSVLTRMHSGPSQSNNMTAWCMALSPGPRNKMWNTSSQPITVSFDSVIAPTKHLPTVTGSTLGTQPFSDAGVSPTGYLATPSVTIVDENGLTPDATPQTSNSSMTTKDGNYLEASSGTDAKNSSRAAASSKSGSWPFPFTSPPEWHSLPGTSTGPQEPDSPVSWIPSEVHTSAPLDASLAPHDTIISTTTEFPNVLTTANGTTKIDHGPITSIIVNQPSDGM

B1: vdPVR-Fc (IgV-domain PVR-Fc) (Fc fusion, mouse, UniProt Q8K094 29-147, looked up)
chain: DIRVLVPYNSTGVLGGSTTLHCSLTSNENVTITQITWMKKDSGGSHALVAVFHPKKGPNIKEPERVKFLAAQQDLRNASLAISNLSVEDEGIYECQIATFPRGSRSTNAWLKVQARPKN
notes: murine PVR (poliovirus receptor, CD155), IgV domain of the extracellular domain, residues 29-147 of NP_081790.1; An Ig-kappa leader at the 5' end drives secretion; Migrates as a dimer (~94 kDa) without reducing agent; also called minimal murine PVR-Fc fusion construct; source: Expi293F cells, secreted, purified (protein A); not shown: Fc (human IgG1; P01857 residues 100-330; joined by linker …)

Assays:
[1] = target: TIGIT on the surface of stimulated murine T-cells (mouse (endogenous in primary splenocyte T-cells)) (UniProt P86176); test: flow cytometry on cells; stimulated mouse splenocytes, Fc receptors blocked, 2.5 ug of construct for 1 h at 4 °C, detected with PE anti-human IgG Fc, gated on CD4+ and CD8+ T-cells; competition by a 2-molar excess of anti-TIGIT antibody (clone 1B4) added after washing, 30 min at 4 °C; only the binder purified
[2] = target: T1, recombinant mouse TIGIT-Fc-his; test: SPR; Biacore T200; His-tagged receptors captured on an anti-histidine antibody CM5 chip (1-5 ug/mL, 30 uL/min); five concentrations (1:2 serial dilutions) of the PVR-Fc constructs flowed over, single-cycle kinetics; HBS-EP (20 mM HEPES pH 7.4, 150 mM NaCl, 0.005% Tween-20, 3.4 mM EDTA); 1:1 Langmuir model; both purified
[3] = target: T2, recombinant mouse CD226-his; test: as above
[4] = target: T3, recombinant mouse CD96-his; test: as above

Row | Molecule | binding [1] | binding [2] | binding [3] | binding [4]
1 | mutant vdPVR-Fc (Q62R and F128R) (from UniProt Q8K094 29-147) (Fc fusion) | no binding (tested: 2.5 µg) | no binding | no binding | no binding
2 | B1 | binds |  |  | 
